Source: PubChem BioAssay AID588342 (National Center for Advancing Translational Sciences (NCATS), 2011)
Where “and” joins values, the source holds several entries; their conditions need not be identical. Identical values can stand only once. Screen size: about 360,000 compounds; about 25,000 (6.9%) were called active. Inconclusive results, whose numbers are uncertain, are shown with a selection of clear calls. Calls come from the whole dose curve; as a rule, active = well fitted inhibition curve with a large enough effect; inconclusive = small, poorly fitted or top-dose-only effect; inactive = flat fitted curve, though single readings scatter. Potencies of inconclusive entries are doubtful fits and often do not repeat.

molecular target: Luciferin 4-monooxygenase (Photinus pyralis) (UniProt P08659); experiment: qHTS profiling assay for firefly luciferase inhibitor/activator using purifed enzyme and Km concentrations of substrates (counterscreen for miR-21 project); conditions: purified FLuc, luminescence inhibition; series mostly up to 57.5 µM; activity change, negative = inhibition: at the top concentration; note: nearly all actives have a fitted effect of over 55% in size;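 for activity change, negative = inhibition: plate controls were vehicle for no effect and reference inhibitor for full effect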
UniProt P08659, sequence (P08659 whole entry, looked up): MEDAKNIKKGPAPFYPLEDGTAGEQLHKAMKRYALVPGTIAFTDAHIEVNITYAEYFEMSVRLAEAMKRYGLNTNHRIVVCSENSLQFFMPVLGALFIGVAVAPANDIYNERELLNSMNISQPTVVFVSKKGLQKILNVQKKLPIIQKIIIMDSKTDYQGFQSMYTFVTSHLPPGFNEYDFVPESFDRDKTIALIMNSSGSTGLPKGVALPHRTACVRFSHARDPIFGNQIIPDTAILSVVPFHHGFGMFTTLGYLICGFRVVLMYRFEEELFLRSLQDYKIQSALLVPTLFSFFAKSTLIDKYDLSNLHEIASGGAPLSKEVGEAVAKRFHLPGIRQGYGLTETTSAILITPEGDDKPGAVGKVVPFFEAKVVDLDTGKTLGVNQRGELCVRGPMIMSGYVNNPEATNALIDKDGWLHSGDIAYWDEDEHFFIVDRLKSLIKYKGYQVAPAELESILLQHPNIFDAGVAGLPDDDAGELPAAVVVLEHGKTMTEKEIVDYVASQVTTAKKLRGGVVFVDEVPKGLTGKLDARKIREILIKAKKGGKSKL
Summary of the method: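 Biochemical qHTS of compounds, final roughly 60 µM downward over six points, against 10 nM purified firefly luciferase using Km concentrations of substrates (10 uM D-luciferin, 10 uM ATP) in Tris acetate pH 7.5 buffer; luminescence output.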
Potency is the fitted concentration of half-maximal effect; tags give direction and shape of the fitted curve.

Row | Compound | activity change, negative = inhibition | Potency
1 | Cc1ccc(OCCCn2ccnc2)cc1C | inactive: -3.04% | –
2 | COc1ccc(-n2c(CCC(=O)O)ccc2-c2ccccc2)cc1 | – | inconclusive: 15.1 µM [inhibitor, partial curve] and inconclusive: 37.9 µM [inhibitor, single point]
3 | CCOC(=O)c1cccc(NC(=O)Cc2ccc(NC(=O)N3CCCCc4ccccc43)cc2)c1 | – | inconclusive: 9.53 µM [inhibitor, partial curve, poor fit]
4 | CN(C)c1ccnc(SCc2ccccc2Cl)c1C#N | – | inconclusive: 26.9 µM [inhibitor, single point]
5 | CC(=O)c1cccc(S(=O)(=O)N2CCN(c3ccccc3F)CC2)c1 | – | inactive
6 | CC(=O)c1cccc(NC(=O)CSC(=O)c2ccccc2)c1 | – | active: 16.9 µM
7 | O=c1oc2ccccc2cc1-c1ccccc1 | – | inconclusive: 26.9 µM [inhibitor, partial curve]
8 | CCCCn1c(N)c(N(CC(C)C)C(=O)c2cc(C)oc2C)c(=O)[nH]c1=O | inactive: 4.73% | –
9 | O=C(CCCOc1ccc(Cl)cc1Cl)NCCc1ccccn1 | – | inconclusive: 37.9 µM [inhibitor, partial curve, poor fit]
10 | O=C(CCC1CCCC1)NCCS(=O)(=O)N1CCN(c2ccccc2F)CC1 | inactive: 2.41% | –
11 | CCCCn1c(N)c(N(Cc2ccccc2OC)C(=O)C(C)C)c(=O)[nH]c1=O | inactive: -0.327% | –
12 | O=C(COc1cccc2cccnc12)Nc1nccs1 | – | active: 12 µM
13 | CCCCn1c(N)c(N(CCOC)C(=O)c2cc(-c3ccc(OC)cc3)nc3ccccc23)c(=O)[nH]c1=O | – | inconclusive: 16.9 µM [inhibitor, partial curve]
14 | COc1ccc(/C(=N/Nc2ncnc3ccccc23)C(=O)O)cc1 | – | inconclusive: 26.9 µM [inhibitor, partial curve]
15 | O=C(O)CCCNc1ccc(S(=O)(=O)Nc2ccccc2C(=O)O)cc1C(=O)O | – | inconclusive: 23.9 µM [inhibitor, partial curve]
16 | CCSc1oc(-c2ccc(F)cc2)nc1S(=O)(=O)c1ccc(C)cc1 | inactive: -8.11% | –
17 | O=S(=O)(c1cccc(Cn2nnc(-c3ccc(F)cc3)n2)c1)N1CCOCC1 | – | inconclusive: 15.1 µM [inhibitor, partial curve, poor fit]
18 | Brc1ccc2nc(N3CCN(c4ccccc4)CC3)sc2c1 | – | inconclusive: 1.69 µM [inhibitor, full curve]
19 | COc1ccc(NC(=S)N/N=C/c2ccc(F)c(F)c2)cc1 | – | inconclusive: 37.9 µM [inhibitor, partial curve, poor fit]
20 | CC1CN/C(=C\C(=O)c2ccccc2)C(=O)N1 (centres undefined) | – | active: 12 µM
21 | COc1ccc(Nc2nnc(-c3ccc(O)cc3)c3ccccc23)cc1C(N)=O | – | inconclusive: 30.1 µM [inhibitor, partial curve, poor fit]
22 | COc1ccc2nc(NC(=O)CSc3nnnn3C)sc2c1 | – | inconclusive: 5.36 µM [inhibitor, full curve]

Row | Compound | activity change, negative = inhibition | Potency
23 | CC1(C)[C@@H](O)CC[C@]2(C)[C@H]3C(=O)C=C4[C@@H]5C[C@@](C)(C(=O)O)CC[C@]5(C)CC[C@@]4(C)[C@]3(C)CC[C@@H]12 | – | inconclusive: 23.9 µM [inhibitor, partial curve]
24 | Cc1ccc(O)c(N=Nc2ccc(S(=O)(=O)N3CCCC3)cc2)c1 | – | active: 15.1 µM
25 | CC(=O)c1cccc(NC(=O)c2cc(-c3ccc(C)cc3)on2)c1 | – | inconclusive: 0.849 µM [inhibitor, full curve]
26 | COc1ccccc1N1CCN(C(=O)NCc2cccc(C(F)(F)F)c2)CC1 | inactive: 0.587% | –
27 | Cc1onc(-c2c(F)cccc2Cl)c1C(=O)Nc1nc2ccccc2[nH]1 | inactive: -16.6% | –
28 | COc1ccc(/C(C)=N/N2CCOCC2)c(O)c1 | – | inconclusive: 19 µM [inhibitor, partial curve]
29 | O=C(CNC(=O)c1ccco1)Nc1ccc2c(c1)OCCO2 | – | active: 6.01 µM
30 | COCCn1c(NC(=S)NC(=O)C2CC2)cc(=O)[nH]c1=O | – | inconclusive: 23.9 µM [inhibitor, partial curve, poor fit]
31 | CCN(CC)C(=O)COc1ccc(-c2nnc(N3CCCCC3)c3ccccc23)cc1 | – | inconclusive: 30.1 µM [inhibitor, single point]
32 | O=C(COc1ccccc1)Nc1cccc(-c2ccc(N3CCOCC3)nn2)c1 | – | active: 1.9 µM
33 | CCc1ccc(C(=O)NNc2ccc(Cl)cc2)cc1 | – | inconclusive: 10.7 µM [inhibitor, partial curve, poor fit]
34 | CC(C)(C)c1ccc(C(=O)NCCC(=O)N2CCN(c3ncccn3)CC2)cc1 | – | inconclusive: 30.1 µM [inhibitor, partial curve, poor fit]
35 | Cc1ccc(CN(C(=O)COc2ccc(Cl)c(C)c2)c2ccccn2)o1 | – | inconclusive: 13.5 µM [inhibitor, partial curve, poor fit]
36 | CCOc1ccc2ncc(S(=O)(=O)c3ccc(C)cc3)c(N3CCC4(CC3)OCCO4)c2c1 | inactive: -0.0977% | –
37 | C/C(N)=C(/C#N)C(=O)COc1ccc(Cl)cc1Cl | – | inconclusive: 37.9 µM [inhibitor, partial curve, poor fit]
38 | COCCN1CCc2c(C)nc3c(-c4ccc(OC)c(OC)c4)cnn3c21 | – | inconclusive: 15.1 µM [inhibitor, partial curve]
39 | O=C(c1ccc2c(=O)n(CCc3ccccc3)c(=O)[nH]c2c1)N1CCN(c2ccccc2)CC1 | inactive: 2.51% | –
40 | Cc1csc(NC(=O)c2ccccc2)n1 | – | active: 9.53 µM
41 | Cc1ccc(-c2cc(-c3ccc4c(c3)NC(=O)CO4)nc3c2COc2ccc(C)cc2-3)cc1 | – | inconclusive: 16.9 µM [inhibitor, partial curve]
42 | Cc1ccc(NC(=O)COC(=O)CNC(=O)c2ccc3ccccc3c2)c([N+](=O)[O-])c1 | – | inconclusive: 16.9 µM [inhibitor, single point]
43 | O=C(OCC(=O)c1c[nH]c2ccccc12)c1cc2ccccc2cc1O | – | inconclusive: 6.01 µM [inhibitor, partial curve, poor fit]
44 | O=C(CCCc1nc2ccccc2s1)Nc1nccs1 | – | inconclusive: 37.9 µM [inhibitor, single point]
